Experimental data published in PMC3140617.

Target: T1, avidin tetramer (egg white) (not stated (egg white)), P02701
T1 chain: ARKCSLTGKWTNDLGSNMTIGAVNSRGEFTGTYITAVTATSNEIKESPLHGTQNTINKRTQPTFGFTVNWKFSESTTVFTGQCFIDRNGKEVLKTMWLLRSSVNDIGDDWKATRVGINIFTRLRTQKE
Assay: native MS
Details: remark: other sources report otherwise

B1: avidin tetramer (egg white), P02701 25-152 (natural protein)
chain: T1 chain
- stoichiometry N: 4
